The results in this text go back to the supplement of paper PMC7826260.

Holding throughout (assay): uncleaved DNA left, log2 of reads against the no-enzyme library (log2 ratio); higher = less cleavage (more negative = more Rep cleavage of the k-mer); sequences stand for … in CTCGTCCG…ACCGGAGA
For assay [1], the system named is T1, Rep nickase domain of Muscovy duck circovirus.
T1 sequence (protein, residues 1-111, tag omitted): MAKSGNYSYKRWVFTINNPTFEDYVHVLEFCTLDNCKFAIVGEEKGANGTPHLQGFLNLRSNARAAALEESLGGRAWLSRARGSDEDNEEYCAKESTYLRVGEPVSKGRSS
As for the experimental part: (§1)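 A pool of 90-nt single-stranded DNAs with seven random bases just before the constant AC of the nick site (name = the seven bases) was cut by 3 µM recombinant His6-SUMO-tagged Rep nickase domain (300 nM DNA, 50 mM HEPES pH 8.0, 50 mM NaCl, 1 mM MnCl2, 1 h, 37 °C, three replicates). Uncut DNA was amplified and sequenced.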

Assay [2] has as its system T2, Rep nickase domain of banana bunchy top virus.
T2 sequence (protein, residues 1-94, tag omitted): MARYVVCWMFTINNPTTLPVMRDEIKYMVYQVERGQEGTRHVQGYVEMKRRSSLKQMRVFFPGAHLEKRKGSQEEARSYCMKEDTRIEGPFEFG
As for the experimental part: as §1
Assay [3] deals with T3, Rep nickase domain of cabbage leaf curl virus.
T3 sequence (protein, residues 1-116, tag omitted): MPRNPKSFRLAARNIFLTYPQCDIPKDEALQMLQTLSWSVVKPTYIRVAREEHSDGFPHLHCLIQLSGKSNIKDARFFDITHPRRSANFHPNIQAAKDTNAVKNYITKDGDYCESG
The method, then: as §1
Assay [4] has as its system T4, Rep nickase domain of chickpea chlorotic dwarf virus.
T4 sequence (protein, residues 1-124, tag omitted): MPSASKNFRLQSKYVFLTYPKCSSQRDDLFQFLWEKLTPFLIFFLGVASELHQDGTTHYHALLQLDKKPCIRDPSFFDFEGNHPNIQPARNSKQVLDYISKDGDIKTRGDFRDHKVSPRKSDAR
The method, then:
as §1

The test system of assay [5] is T5, Rep nickase domain of faba bean necrotic yellows virus.
T5 sequence (protein, residues 1-98, tag omitted): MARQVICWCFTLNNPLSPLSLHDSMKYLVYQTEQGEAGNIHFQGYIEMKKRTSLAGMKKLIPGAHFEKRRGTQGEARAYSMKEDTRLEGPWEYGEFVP
As for the experimental part: as §1
Assay [6] relates to T6, Rep nickase domain of maize striate mosaic virus.
T6 sequence (protein, residues 1-117, tag omitted): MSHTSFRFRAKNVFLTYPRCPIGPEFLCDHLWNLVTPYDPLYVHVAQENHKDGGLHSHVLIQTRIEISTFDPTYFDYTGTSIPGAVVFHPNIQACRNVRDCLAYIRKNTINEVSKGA
As for the experimental part: as §1
In assay [7] the test system is T7, Rep nickase domain of porcine circovirus 2.
T7 sequence (protein, residues 2-116, tag omitted): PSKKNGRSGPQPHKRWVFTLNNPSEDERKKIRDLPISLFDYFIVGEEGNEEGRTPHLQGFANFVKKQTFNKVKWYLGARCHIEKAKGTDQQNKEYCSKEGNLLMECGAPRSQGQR
The method, then: as §1
The subject of assay [8] is T8, Rep nickase domain of tomato golden mosaic virus.
T8 sequence (protein, residues 1-124, tag omitted): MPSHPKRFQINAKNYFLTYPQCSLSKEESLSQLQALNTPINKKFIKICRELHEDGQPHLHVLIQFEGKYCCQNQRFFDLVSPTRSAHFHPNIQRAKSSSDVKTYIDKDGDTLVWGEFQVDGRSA
As for the experimental part: as §1
Assay [9] deals with T9, Rep nickase domain of tomato yellow leaf curl virus.
T9 sequence (protein, residues 1-136, tag omitted): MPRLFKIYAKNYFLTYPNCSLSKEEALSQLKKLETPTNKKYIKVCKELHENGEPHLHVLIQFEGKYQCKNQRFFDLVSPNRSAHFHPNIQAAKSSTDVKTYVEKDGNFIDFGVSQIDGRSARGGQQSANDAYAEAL
The method, then: as §1
Assay [10] has as its system T10, Rep nickase domain of wheat dwarf virus.
T10 sequence (protein, residues 1-137, tag omitted): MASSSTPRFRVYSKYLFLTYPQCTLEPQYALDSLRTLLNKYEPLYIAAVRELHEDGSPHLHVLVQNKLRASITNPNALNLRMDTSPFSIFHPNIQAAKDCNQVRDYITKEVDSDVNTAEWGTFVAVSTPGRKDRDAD
As for the experimental part:
as §1

The other results are listed elsewhere or left out. Viral Rep nickase domains cut single-stranded DNA in vitro (1 h at 37 °C, 3 µM enzyme); the outer parts of the 90-letter strands are left off. Uncut reads are compared with the no-enzyme pool on a log2 scale; the lower, the more was cut; hits are not called. Shares of all reads are compared; where an enzyme cuts many sequences, the uncut ones exceed 0.

On to CACCCAT, for which the “uncleaved DNA left (log2)” value in assay [1] is -0.176; in assay [2] it was -0.248; in assay [3], -0.594; in assay [4], -2.34; in assay [5] it was -0.187; in assay [6] it was -1.2. The “uncleaved DNA left (log2)” value in assay [7] was -0.832; in assay [8] it was -0.233; in [9], -0.15; in [10], -0.0641.

With GCCGCGG, the “uncleaved DNA left (log2)” value in assay [1] is -0.114; in [2], -0.108; in [3], 0.0903; in [4], 0.463; in assay [5] it was 0.0545; in assay [6], 0.323. Moreover, the “uncleaved DNA left (log2)” value in assay [7] is 0.108; in assay [8], 0.0129; in [9] it was -0.0264; in assay [10] it was -0.0726.

On to GGCTAGA, for which the “uncleaved DNA left (log2)” value in assay [1] was -0.0283; in [2] it was 0.0121; in [3], 0.467; in [4], 1.12; in assay [5], -0.00403; in assay [6], 1.5. The “uncleaved DNA left (log2)” value in assay [7] amounted to 0.194; in assay [8] it was 0.131; in [9] it was 0.125; in [10], 0.184.

Regarding GTCATCC, the “uncleaved DNA left (log2)” value was 0.0214 in assay [1]; 0.0753 in [2]; 0.24 in assay [3]; 0.887 in assay [4]; -0.0931 in assay [5]; 1.51 in assay [6]. The “uncleaved DNA left (log2)” value is 0.0352 in [7], -0.00405 in [8], 0.0786 in assay [9] and 0.0978 in assay [10].

For AGCCTCC, the “uncleaved DNA left (log2)” value in assay [1] came out at 0.0887; in assay [2], 0.00943; in [3], 0.349; in assay [4] it was 0.622; in assay [5] it was 0.0193; in [6], 1.02. Moreover, the “uncleaved DNA left (log2)” value in assay [7] was -0.141; in [8] it was -0.054; in [9], -0.0631; in assay [10], 0.0654.

For CTGAGAT, the “uncleaved DNA left (log2)” value in assay [1] is 0.181; in assay [2] it was -0.198; in [3], 0.291; in assay [4], 1.29; in [5], 0.24; in assay [6], 1.43. In addition, the “uncleaved DNA left (log2)” value in assay [7] is 0.401; in assay [8], 0.129; in assay [9] it was -0.0598; in [10], 0.0371.

Consider AAACCAA, for which the “uncleaved DNA left (log2)” value in assay [1] is -0.0169; in assay [2] it was -0.0434; in [3] it was -0.000338; in assay [4], -1.11; in assay [5] it was -0.0725; in assay [6], -0.615. Also, the “uncleaved DNA left (log2)” value was -0.453 in assay [7], -0.0205 in [8], -0.0497 in assay [9] and -0.0738 in assay [10].

GCGATGT: the “uncleaved DNA left (log2)” value is -0.0011 in assay [1]; -0.0934 in assay [2]; 0.00786 in [3]; 0.564 in assay [4]; -0.0434 in assay [5]; 1.31 in assay [6]. Also, the “uncleaved DNA left (log2)” value in assay [7] is 0.0439; in assay [8], -0.107; in assay [9] it was -0.0934; in assay [10] it was -0.0628.

ACTCTCC: the “uncleaved DNA left (log2)” value was -0.121 in assay [1]; -0.103 in [2]; -0.404 in [3]; 0.153 in assay [4]; -0.069 in [5]; 1.13 in assay [6]. For the same sequence, the “uncleaved DNA left (log2)” value in assay [7] is 0.0293; in assay [8], -0.0282; in assay [9] it was -0.181; in assay [10], -0.0646.

In the case of TTATCCT, the “uncleaved DNA left (log2)” value was -2.51 in assay [1]; 0.0219 in [2]; -1.44 in [3]; -2.31 in [4]; -0.0931 in [5]; -0.496 in [6]. The “uncleaved DNA left (log2)” value in [7] is -1.65; in [8], -0.391; in assay [9], -0.0348; in [10], -0.33.

As to GGCAGCG, the “uncleaved DNA left (log2)” value in assay [1] was 0.114; in assay [2], 0.0315; in assay [3], -0.737; in assay [4] it was 0.0657; in assay [5] it was 0.078; in assay [6] it was -0.581. In addition, the “uncleaved DNA left (log2)” value is 0.155 in assay [7], 0.0416 in assay [8], 0.0916 in [9] and -0.0339 in assay [10].

Consider CAGCTGA, for which the “uncleaved DNA left (log2)” value in [1] was 0.0869; in assay [2], 0.013; in assay [3], 0.466; in assay [4], 1.58; in assay [5], -0.0353; in [6] it was 1.56. Moreover, the “uncleaved DNA left (log2)” value in assay [7] is 0.293; in assay [8], 0.185; in [9], 0.0247; in assay [10] it was 0.132.

As for AACGCCC, the “uncleaved DNA left (log2)” value in [1] was -0.0059; in assay [2] it was -0.0516; in [3], -0.137; in assay [4], -0.405; in assay [5], -0.0881; in [6] it was -0.246. For the same sequence, the “uncleaved DNA left (log2)” value is -0.138 in assay [7], 0.0212 in assay [8], -0.16 in assay [9] and -0.0141 in assay [10].

With TGTATAG, the “uncleaved DNA left (log2)” value in assay [1] is 0.143; in assay [2], 0.0399; in assay [3], -0.59; in assay [4] it was -0.414; in assay [5], 0.156; in [6] it was -0.901. The “uncleaved DNA left (log2)” value in assay [7] was determined as 0.259; in assay [8], 0.0764; in assay [9], 0.127; in assay [10], 0.101.

Turning to CTGAAGA, the “uncleaved DNA left (log2)” value in [1] is 0.147; in assay [2], 0.0583; in assay [3] it was -0.182; in assay [4] it was -0.139; in assay [5], 0.228; in assay [6], -1.01. In addition, the “uncleaved DNA left (log2)” value in [7] is 0.211; in assay [8], 0.0481; in assay [9] it was 0.0623; in assay [10], 0.0501.
